Biological target: the molecule itself
Assay: AUC

B1: Neuronal growth regulator 1 (NEGR1) extracellular domain, […], with C-terminal linker and hexahistidine tag (domain or fragment)
chain: not shown
modifications: N-linked glycosylation (extensive)
Question: With B1 as the protein, how does the “stoichiometry N” value read?
Answer: 2
